Measurements published in the supplement of paper PMC11876631.
Substitutions are numbered along the chain they refer to. In names and notes the source's numbering stands. ± gives the standard deviation of the averaged measurements. Laboratory Escherichia coli strains with one amino-acid change in an essential protein, pooled on minimal glucose agar with carbenicillin or gentamicin at twice the control MIC (plus kanamycin and chloramphenicol for the plasmids), 48 h. Fold change of barcode share against drug-free plates; higher = less susceptible. Active = above 20 in both replicates (the paper's putatively resistant). '<' = one read or none on drug, '>' = one read or none on a drug-free plate. Shares are relative, so most strains fall below 1 when a few take over. Listed are strains with at least 15 reads on both drug-free plates, and hits; most hits rest on fewer reference reads. Replicate rank correlation about 0.5. Edits are read from barcodes.

B1: nadD V202A (protein)
chain: MKSLQALFGGTFDPVHYGHLKPVETLANLIGLTRVTIIPNNVPPHRPQPEANSVQRKHMLELAIADKPLFTLDERELKRNAPSYTAQTLKEWRQEQGPDVPLAFIIGQDSLLTFPTWYEYETILDNAHLIVCRRPGYPLEMAQPQYQQWLEDHLTHNPEDLHLQPAGKIYLAETPWFNISATIIRERLQNGESCEDLLPEPALTYINQQGLYR
B2: nadD V202W (protein)
chain: B1 chain with A202W
B3: nadD V202Q (protein)
chain: B1 chain with A202Q
B4: nadD V202D (protein)
chain: B1 chain with A202D
B5: nadD V202P (protein)
chain: B1 chain with A202P
B6: nadE L43A (protein)
chain: MTLQQQIIKALGAKPQINAEEEIRRSVDFLKSYLQTYPFIKSAVLGISGGQDSTLAGKLCQMAINELRLETGNESLQFIAVRLPYGVQADEQDCQDAIAFIQPDRVLTVNIKGAVLASEQALREAGIELSDFVRGNEKARERMKAQYSIAGMTSGVVVGTDHAAEAITGFFTKYGDGGTDINPLYRLNKRQGKQLLAALACPEHLYKKAPTADLEDDRPSLPDEVALGVTYDNIDDYLEGKNVPQQVARTIENWYLKTEHKRRPPITVFDDFWKK
B7: nadE I79Q (protein)
chain: B6 chain with A43L, I79Q
B8: nadE V157A (protein)
chain: B6 chain with A43L, V157A
B9: nadE I251A (protein)
chain: B6 chain with A43L, I251A
B10: nadE F78Q (protein)
chain: B6 chain with A43L, F78Q
B11: nadE L195Q (protein)
chain: B6 chain with A43L, L195Q
B12: nadE L196A (protein)
chain: B6 chain with A43L, L196A
B13: aspS I34Q (protein)
chain: MRTEYCGQLRLSHVGQQVTLCGWVNRRRDLGSLQFIDMRDREGIVQVFFDPDRADALKLASELRNEFCIQVTGTVRARDEKNINRDMATGEIEVLASSLTIINRADVLPLDSNHVNTEEARLKYRYLDLRRPEMAQRLKTRAKITSLVRRFMDDHGFLDIETPMLTKATPEGARDYLVPSRVHKGKFYALPQSPQLFKQLLMMSGFDRYYQIVKCFRDEDLRADRQPEFTQIDVETSFMTAPQVREVMEALVRHLWLEVKGVDLGDFPVMTFAEAERRYGSDKPDLRNPMELTDVADLLKSVEFAVFAGPANDPKGRVAALRVPGGASLTRKQIDEYGNFVKIYGAKGLAYIKVNERAKGLEGINSPVAKFLNAEIIEDILDRTAAQDGDMIFFGADNKKIVADAMGALRLKVGKDLGLTDESKWAPLWVIDFPMFEDDGEGGLTAMHHPFTSPKDMTAAELKAAPENAVANAYDMVINGYEVGGGSVRIHNGDMQQTVFGILGINEEEQREKFGFLLDALKYGTPPHAGLAFGLDRLTMLLTGTDNIRDVIAFPKTTAAACLMTEAPSFANPTALAELSIQVVKKAENN
B14: obgE V201A (protein)
chain: MKFVDEASILVVAGDGGNGCVSFRREKYIPKGGPDGGDGGDGGDVWMEADENLNTLIDYRFEKSFRAERGQNGASRDCTGKRGKDVTIKVPVGTRVIDQGTGETMGDMTKHGQRLLVAKGGWHGLGNTRFKSSVNRTPRQKTNGTPGDKRELLLELMLLADVGMLGMPNAGKSTFIRAVSAAKPKVADYPFTTLVPSLGVARMDNEKSFVVADIPGLIEGAAEGAGLGIRFLKHLERCRVLLHLIDIDPIDGTDPVENARIIISELEKYSQDLATKPRWLVFNKIDLLDKVEAEEKAKAIAEALGWEDKYYLISAASGLGVKDLCWDVMTFIIENPVVQAEEAKQPEKVEFMWDDYHRQQLEEIAEEDDEDWDDDWDEDDEEGVEFIYKR
B15: obgE V201Q (protein)
chain: B14 chain with A201Q

Target: Escherichia coli (laboratory strain)
Assay: barcode share on antibiotic plates over drug-free plates; higher = less susceptible
Conditions: antibiotic: carbenicillin; 2× MIC (3.1 µg/mL)
Procedure: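 A pool of E. coli strains, each edited to carry one amino-acid change in an essential protein, was grown for 48 h on minimal glucose agar with or without antibiotic; strain barcodes were sequenced; mean of two replicates.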

| Protein | fold change of barcode share |
| --- | --- |
| B1 | 0.299 ± 0.072 |
| B2 | 0.478 ± 0.0092 |
| B3 | 0.227 ± 0.05 |
| B4 | 0.25 ± 0.067 |
| B5 | 0.226 ± 0.079 |
| B6 | 2.12 ± 2.1 |
| B7 | 0.171 ± 0.043 |
| B8 | 0.248 ± 0.04 |
| B9 | 0.257 ± 0.04 |
| B10 | 0.2 ± 0.093 |
| B11 | 0.436 ± 0.23 |
| B12 | 0.176 ± 0.077 |

Same assay, conditions: antibiotic: gentamicin; 2× MIC (MIC 0.45 µg/mL)

| Protein | fold change of barcode share |
| --- | --- |
| B1 | 0.0346 ± 0.03 |
| B2 | 0.00257 ± 0.00029 |
| B3 | 0.00448 ± 0.0015 |
| B4 | < 0.00204 |
| B5 | 0.00661 ± 0.0066 |
| B6 | < 0.00687 |
| B7 | 0.0159 ± 0.0084 |
| B8 | < 0.00752 |
| B9 | < 0.0158 |
| B10 | < 0.0173 |
| B11 | < 0.00604 |
| B12 | < 0.0119 |
| B13 | < 0.0163 |
| B14 | < 0.0096 |
| B15 | < 0.0146 |
